# Laboratory results taken from PubChem BioAssay AID2546 (National Center for Advancing Translational Sciences (NCATS), 2010).
# The whole screen tested about 310,000 compounds, of which about 11,000 (3.5%) were called active. The shares of active, inactive and inconclusive entries below differ from those in the screen. The call rests on the fitted dose curve; in most records, active means well fitted inhibition curve with a large enough effect; inconclusive means small, poorly fitted or top-dose-only effect, or effect the other way; inactive means flat fitted curve, though single readings scatter. Potencies of inconclusive entries are left out as doubtful fits.
# Test: VP16 counterscreen qHTS for inhibitors of ROR gamma transcriptional activity;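 further: Gal4-VP16 expression switched on by copper sulfate through the metallothionein promoter; nearly all actives have a fitted effect of over 50% in size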
# Details: Drosophila S2 Gal4-VP16 UAS-luciferase, luminescence, 20 h; activity, negative = inhibition: at 53.6 µM (top of the series)
# On the % scale 0 is the no-effect control and ±100 the full control effect; potency means the concentration at half of the fitted maximal effect; tags describe the fitted curve by direction and shape.
Compound,Potency,"activity, negative = inhibition"
COc1ccc(-n2cccc2/C=C/[N+](=O)[O-])cc1,"inconclusive [inhibitor, single point]",
C#CC(=O)N(c1cc(OC)ccc1OC)C(C(=O)NC1CCCC1)c1cccs1 (stereo not drawn),active: 7.08 µM,
CCOC(=O)c1ccc(NC2=CC(=O)C(=O)c3ccccc32)cc1,"inconclusive [inhibitor, single point]",
CCNC(=O)c1ccc(C23CC4CC(CC(C4)C2)C3)o1,,inactive: 3.23% [at 10 µM]
COC(=O)C1=C(C)N(Cc2ccccc2)C(=NCCc2cccnc2)N[C@H]1c1ccc(Br)cc1,,inactive: -24%
Cc1ccccc1Cn1nc(C)c(NC(=O)c2cc(CC(C)C)on2)c1C,,inconclusive: -32.5% [inhibitor]
CCOc1ccc(Br)cc1S(=O)(=O)Nc1ccc(C(=O)OCC(=O)N(C)c2ccccc2)cc1,"inconclusive [activator, single point]",
CCOc1ccc(N2CC(C(=O)NCc3ccc4c(c3)OCO4)CC2=O)cc1 (stereo not drawn),,inactive: 0.234%
O=C(OCc1cccc([N+](=O)[O-])c1)c1cnccn1,,inactive: -3.49%
Cc1cc(C(=O)COC(=O)Cc2n[nH]c(=O)c3ccccc23)c(C)n1-c1ccc2c(c1)OCCO2,"inconclusive [inhibitor, single point]",
CC1(C)CC(=O)C2=C(C1)Nc1ccccc1S2,,inactive: -4.97%
CCc1cc(/C(Cc2ccccn2)=N\O)c(O)cc1O,"inconclusive [inhibitor, single point]",
CCN1CCN(c2ccc(S(=O)(=O)N3CCCCC3)cc2NC(=O)/C=C/c2cccc(OC)c2OC)CC1,"inconclusive [inhibitor, single point]",
O=C(O)c1ccc(CNS(=O)(=O)c2ccc3ccccc3c2)cc1,,inactive: 5.05%
Fc1ccc2c(c1)C(c1ccncc1)=NNC(c1ccc(Br)cc1)=N2,"inconclusive [inhibitor, single point]",
O=C(COc1ccc([N+](=O)[O-])cc1)Nc1nnc(-c2cccnc2)s1,,inactive: 6.56%
Cc1cc(C)n(-c2nc3ccccc3c(=O)n2OCC(=O)N(C)C)n1,,inactive: -9.65%
Cc1cc(OCc2n[nH]c(=S)n2-c2ccccc2)ccc1Cl,active: 3.55 µM,
CN(C)c1ccc(/C=N/NC(=O)C2COc3ccccc3O2)o1 (stereo not drawn),"inconclusive [inhibitor, single point]",
CC1CCN(S(=O)(=O)c2ccc(C(=O)Nc3ccccc3-c3nc4ccccc4[nH]3)cc2)CC1,,inactive: -12.7%
Cc1ccc2oc(-c3cccc(NC(=S)NC(=O)c4cccs4)c3)nc2c1,,inactive: 17.4%
COc1cc(Cl)c(C)cc1NC(=O)c1cccc(OC)c1OC,,inactive: -0.45%
CCN(Cc1ccccc1)c1ccc(/C=C(\C#N)c2ccccn2)cc1,"inconclusive [inhibitor, single point]",
Cc1n[nH]c(=S)c2nn(-c3ccccc3F)c(C)c12,"inconclusive [inhibitor, single point]",
COc1ccc(N=C2C(=Nc3ccc(OC)cc3)N(c3ccc(OC)cc3)C(=S)N2c2ccccc2)cc1,,inactive: 22.9%
Fc1cccc(Cc2noc(CN3CCN(C4CCc5ccccc5C4)CC3)n2)c1 (stereo not drawn),,inactive: -4.73%

Compound,Potency,"activity, negative = inhibition"
Cc1ccc(C(=O)NCCSCc2ccc(Cl)cc2Cl)cc1[N+](=O)[O-],"inconclusive [inhibitor, partial curve]",
Cc1ccc2[nH]c(C)c(CCNC(=O)c3c(N)no[n+]3[O-])c2c1,,inactive: -0.718%
COc1ccccc1N(Cc1ccccc1)S(=O)(=O)c1cccc(C(=O)Nc2cc(C)ccn2)c1,active: 10 µM,
O=C(Nc1nnc(-c2ccc3c(c2)CCCC3)o1)c1ccccc1,active: 0.1 µM,
Cc1ccc(C(=O)N2N=C(c3ccc(Br)cc3)CC2c2ccccc2O)cc1 (stereo not drawn),"inconclusive [inhibitor, single point]",
Cc1ccccc1-n1nnnc1SCC(N)=O,,inactive: -1.1%
O=C1C(c2ccccc2)SC(=Nc2ccccc2)N1S(=O)(=O)c1ccccc1 (stereo not drawn),"inconclusive [inhibitor, single point]",
COC(=O)c1ccc(NC(=S)N2CCN(Cc3cccc(C)c3)CC2)cc1,"inconclusive [inhibitor, single point]",
Cn1cnnc1SCC(=O)Nc1ccccc1Oc1ccccc1,,inactive: -13.2%
CC(NC(=O)c1cc(-c2ccc3c(c2)OCO3)nc2ccccc12)C(C)(C)C (stereo not drawn),"inconclusive [inhibitor, single point]",
CC1CCN(S(=O)(=O)c2cccc(C(=O)NC3CCCCC3)c2)CC1,,inactive: -2.4%
c1csc(-c2ccc(N3CCOCC3)nn2)c1,active: 11.2 µM,
O=C(Nc1nc(COc2ccccc2)cs1)C12CC3CC(CC(C3)C1)C2,"inconclusive [inhibitor, single point]",
COC(=O)c1sccc1N/N=C/c1cccc(OC)c1O,active: 15.8 µM,
COc1cc(CNc2ccc(O)cc2)cc(Br)c1OCc1ccccc1F,"inconclusive [inhibitor, full curve]",
Nn1c(SCC(=O)Nc2ccc3c(c2)OCCO3)nnc1-c1ccccn1,"inconclusive [inhibitor, partial curve, poor fit]",
CCc1cccc(CC)c1NC(=S)NC(C)c1ccccc1 (stereo not drawn),"inconclusive [inhibitor, single point]",
Cc1ccc2nc3c(cc(C#N)c(=N)n3Cc3cccnc3)c(=O)n2c1,,inactive: 1.15%
COCc1ccc([C@@H]2C[C@H]3CN(Cc4cccnc4)C(=O)[C@]34CCCN24)o1,,inactive: 1.54%
N/C(=N\OC(=O)c1ccccc1Cl)c1ccccc1,"inconclusive [inhibitor, single point]",
COc1ccccc1-c1cc(C(=O)NCCc2ccccc2)no1,"inconclusive [inhibitor, single point]",
C/C(=N\Nc1cccc2cccnc12)c1ccc(C)cc1,"inconclusive [activator, single point]",
CC(C)c1ccc(N2C(=O)CC(NNC(=O)c3cccnc3)C2=O)cc1 (stereo not drawn),"inconclusive [inhibitor, single point]",
COc1cccc(C(=O)Oc2c(CN3CCOCC3)cc(Cl)c3cccnc23)c1,active: 4.47 µM,
COC(=O)c1ccc(CSc2nnc(N)s2)cc1,,inactive: -0.704%
CC(C)CC(=O)N1CCN(S(=O)(=O)c2ccc3ccccc3c2)CC1,"inconclusive [inhibitor, single point]",

Compound,Potency,"activity, negative = inhibition"
O=C1OC(c2ccc(F)cc2)=C/C1=C\c1ccc([N+](=O)[O-])o1,"inconclusive [inhibitor, single point]",
Cc1ccccc1C(=O)Nc1cccc(N)c1,,inactive: -25%
O=C(NNC(=O)c1sc2cccc(Cl)c2c1Cl)NC1CCCCC1,,inactive: 0%
O=C(COc1ncnc2sccc12)NC1CCS(=O)(=O)C1 (stereo not drawn),,inactive: -3.81%
CC1CCC(NC(=O)Cn2c3c(c(-c4ccccc4Cl)cc2=O)CCC3)CC1 (stereo not drawn),,inactive: -2.3%
C=CCNC(=S)Nc1ccccc1,"inconclusive [inhibitor, single point]",
O=C(c1cc(-c2cccc(O)c2)on1)N1CCN(C(c2ccccc2)c2ccccc2)CC1,"inconclusive [inhibitor, single point]",
COc1ccc(CN2CCC(n3nccc3NC(=O)CCCc3ccccc3)CC2)cc1C,"inconclusive [inhibitor, single point]",
CN(C)c1ccc(NC(N)=S)cc1,"inconclusive [activator, single point]",
Cc1ccc(NC(=S)Nc2ccc3nc(-c4ccccn4)c(-c4ccccn4)nc3c2)cc1C,"inconclusive [inhibitor, single point]",
COc1cccc(CNC23CC4CC(CC(C4)C2)C3)c1OCc1ccccc1,,inactive: 3.82%
CCOC(=O)c1ccc(OCC(=O)c2ccc(O)cc2O)cc1,active: 1.12 µM,
COC(=O)COc1ccc(S(=O)(=O)Nc2ccc3c(c2)OCCO3)cc1Cl,"inconclusive [inhibitor, single point]",
Cc1ccc(NC(=O)c2ccccc2F)nc1,"inconclusive [inhibitor, single point]",
Cc1ccc(NC(=S)N2CCCCC2)cc1C,"inconclusive [inhibitor, single point]",
Cc1cc(C(=O)CN2C(=O)c3ccccc3S2(=O)=O)c(C)n1CC1CCCO1 (stereo not drawn),active: 8.91 µM,
c1ccc2c(c1)OCCOCCOCCOCCO2,,inactive: -7.24%
COc1ccc(O)c(/C=N/Nc2nc(Nc3ccccc3)nc(-n3nc(C)cc3C)n2)c1,active: 0.631 µM,
CC(=O)N1c2ccc(S(=O)(=O)N3CCC(C(=O)N4CCN(c5ccccc5)CC4)CC3)cc2CC1C (stereo not drawn),,inactive: 4.75%
CC(C)(C)C(=O)Nc1ccc(Sc2ccc([N+](=O)[O-])cc2)cc1,"inconclusive [inhibitor, single point]",
NNC(=O)c1ncoc1-c1ccc(Cl)cc1,,inactive: -4.12%
COc1ccc(S(=O)(=O)NCCCCOc2ccc(Cl)cc2)cc1,"inconclusive [inhibitor, partial curve]",
CCOc1ccccc1Nc1nnc(SCC(=O)NC(=O)c2cccn2C)s1,"inconclusive [inhibitor, partial curve, poor fit]",
O=C1CN(Cc2cc(=O)oc3cc4c(cc23)CCC4)CCN1,,inactive: -6.75%
CS(=O)(=O)N(CCc1ccccc1)CC(=O)NCc1ccc(Cl)cc1,,inactive: 2.44%
Cc1cc(C)n(CC(=O)N/N=C/c2cc(Br)cc([N+](=O)[O-])c2O)n1,active: 0.891 µM,
